In the supplement of paper PMC10126150:
Values marked as one replicate rest on one cluster of the flow cell; about a third of the high ones do not repeat.

System: ATP
Assay: switch fluorescence ratio, 500 uM ATP over buffer (Cy3 cluster intensity, sum of 5 cycles each) (fold (ratio)); higher = stronger signal-on switching upon ATP binding; sequences stand for … in TCGTCGGCAGCGTCAGATGTGTATAAGAGACAGTTTTTTTTTTTTTTTTTTTTTTTTT…TC
Conditions: aptamer strand: ATP DNA aptamer (quencher-CACCTGGGGGAGTATTGCGGAGGAAGG + anchor), 100 nM annealed; ATP concentration: 500 uM; one replicate
In short: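 For every switch-domain sequence, the fluorescence ratio is the mean of per-cluster values, each being summed target-cycle Cy3 intensity over summed buffer-cycle Cy3 intensity. Clusters outside 100-1000 RFU were excluded. On a modified Illumina MiSeq flow-cell, the Cy3-labelled switching-strand clusters were annealed to 100 nM quencher-labelled ATP aptamer, imaged in selection buffer and then after 15 min with 500 uM ATP at 22 °C. Five such cycles were run, with NaOH stripping and re-annealing between them.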
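Further: ATP exposure 15 min at 22 °C before imaging.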

CAAGGAGGCT was tested, and the switch fluorescence ratio was 0.972.
GGCGAAGGT was tested, and the switch fluorescence ratio was 0.959.
Sequence CGGCTGTCGA has a switch fluorescence ratio of 1.
For CACGTTAGTA, the switch fluorescence ratio was 0.989.
For CGGCATAGGG, the switch fluorescence ratio was 0.934.
With TGGTGGCTCT the switch fluorescence ratio was 1.
Sequence CTTGTGTAAT has a switch fluorescence ratio of 0.993.
Sequence TAGTGCGTTC has a switch fluorescence ratio of 0.995.
For AGGCCGCCGT, the switch fluorescence ratio was 0.955.
TGGGAGTGTT was tested, and the switch fluorescence ratio was 0.97.
In the case of GGCGTTAGTG, the switch fluorescence ratio is reported as 0.985.
For ATCTCCAGA, the switch fluorescence ratio was 1.
In the case of AGTGCAAA, the switch fluorescence ratio is reported as 1.
ATGACAGATA showed a switch fluorescence ratio of 0.982.
Work on ACGTCGGCTG yielded a switch fluorescence ratio of 1.07.
Work on TTTTCGGATA yielded a switch fluorescence ratio of 1.07.
Sequence AGATTGGGT has a switch fluorescence ratio of 1.06.
CCTGGGGACT gave a switch fluorescence ratio of 0.97.
GAATTATGCA gave a switch fluorescence ratio of 1.02.
In the case of TTTGAACCAT, the switch fluorescence ratio is reported as 0.971.
GCGTCAGGCA showed a switch fluorescence ratio of 1.
TTTTGAGAT showed a switch fluorescence ratio of 1.03.
Sequence GCCAGCAGGA has a switch fluorescence ratio of 1.05.
In the case of GCCCCGAGCC, the switch fluorescence ratio is reported as 1.12.
Sequence TATCACCAAT has a switch fluorescence ratio of 1.17.
Sequence GGCGGCAAAT has a switch fluorescence ratio of 1.03.
TTCAATAGAC was tested, and the switch fluorescence ratio was 1.1.
In the case of TTGGTAGTAG, the switch fluorescence ratio is reported as 0.999.
For AACCAACTAT, the switch fluorescence ratio was 1.05.
In the case of GTATGAGCAG, the switch fluorescence ratio is reported as 0.958.
With CCAGGACGGG the switch fluorescence ratio was 0.986.
In the case of AGCGGTTGAC, the switch fluorescence ratio is reported as 1.08.
With TATCGTAACT the switch fluorescence ratio was 1.02.
With AAATAGAGAA the switch fluorescence ratio was 0.988.
TCCCGGTGAA gave a switch fluorescence ratio of 1.1.
Sequence TGTTGCGATG has a switch fluorescence ratio of 0.998.
With GACCTATTGC the switch fluorescence ratio was 1.02.
TGGTCGGAGG gave a switch fluorescence ratio of 0.99.
For AACATTAGGG, the switch fluorescence ratio was 1.01.
In the case of CGGCCCAGCA, the switch fluorescence ratio is reported as 1.07.
Sequence TACGGGTTGT has a switch fluorescence ratio of 1.02.
TAAAATGAAC was tested, and the switch fluorescence ratio was 0.951.
Work on AATAAGTCAT yielded a switch fluorescence ratio of 1.04.
AAGTCAGGCC was tested, and the switch fluorescence ratio was 0.995.
Sequence ACTCTTTGGA has a switch fluorescence ratio of 0.994.
Work on TATGGCACG yielded a switch fluorescence ratio of 1.13.
ATCATGACTC was tested, and the switch fluorescence ratio was 1.07.
With GGCCCCACA the switch fluorescence ratio was 1.
With TTAAGCCGTA the switch fluorescence ratio was 1.02.
Work on CATCGTTGGA yielded a switch fluorescence ratio of 1.01.
Work on GGTAGGGTCC yielded a switch fluorescence ratio of 0.946.
For GCAGAAAACA, the switch fluorescence ratio was 0.972.
Sequence GCTCAAGTTA has a switch fluorescence ratio of 0.995.
Sequence TTAACTACGC has a switch fluorescence ratio of 1.88.
For TTGTTCGCTG, the switch fluorescence ratio was 0.964.
For CTCAGCTGGC, the switch fluorescence ratio was 0.987.
With TACCCTACAA the switch fluorescence ratio was 1.28.
Work on TATCTATATA yielded a switch fluorescence ratio of 0.996.
With TCTGAAAATT the switch fluorescence ratio was 1.05.
Sequence GGCACAGGAG has a switch fluorescence ratio of 1.18.
Work on CGGTAAAGGG yielded a switch fluorescence ratio of 0.978.
Work on TGTCGGTCCG yielded a switch fluorescence ratio of 1.01.
Sequence ACGCGGTACG has a switch fluorescence ratio of 1.08.
CCACCGGATG was tested, and the switch fluorescence ratio was 1.3.
For GGTACTCCAA, the switch fluorescence ratio was 1.05.
With TTTAAGTGCC the switch fluorescence ratio was 1.01.
Work on ATTTGAGCCC yielded a switch fluorescence ratio of 1.01.
Work on TCAGCCGTGT yielded a switch fluorescence ratio of 0.992.
ATTTGCCTAT gave a switch fluorescence ratio of 0.954.
CTGCCTATGA was tested, and the switch fluorescence ratio was 1.03.
Sequence ATCAGCATTG has a switch fluorescence ratio of 0.998.
GGTCAGCCGC was tested, and the switch fluorescence ratio was 1.01.
AGCTATGGGG was tested, and the switch fluorescence ratio was 0.979.
CCTGCTACAG was tested, and the switch fluorescence ratio was 1.1.
In the case of AGGAACGACC, the switch fluorescence ratio is reported as 0.974.
GAGAACTTTC was tested, and the switch fluorescence ratio was 0.945.
AAGGGTTCTA was tested, and the switch fluorescence ratio was 1.
ACTTTTTTAC showed a switch fluorescence ratio of 1.04.
For CAACGAAGCG, the switch fluorescence ratio was 1.09.
In the case of GATCTTAATT, the switch fluorescence ratio is reported as 0.979.
TCGGTTGTAT gave a switch fluorescence ratio of 0.96.
For GTCTAAGCTC, the switch fluorescence ratio was 0.999.
Sequence CATCTCAGGG has a switch fluorescence ratio of 1.02.
GATACCCTGA was tested, and the switch fluorescence ratio was 1.03.
Sequence AGGAGGCATC has a switch fluorescence ratio of 1.02.
